Source: paper PMC10668032
Some of the results follow. At the low end of the ranking the order means little.

These sequences were tested against SIX1-Q177R homeodomain (UniProt Q15475) (assay: universal protein binding microarray). Settings: Universal all-10-mer PBM (8x60K, AMADID 030236), 300 nM GST-tagged protein, Alexa Fluor 488 anti-GST; buffer, salt, pH and temperature not stated; high values mean tight binding; most listed sequences are background and not binding sites; double strand, one strand shown.
With ATACGGTA the binding signal was 0.0274 E-score. Work on ACAGCACA yielded a binding signal of 0.0958 E-score. Work on ATCTTGTG yielded a binding signal of 0.0962 E-score. For AGGAGGCG, the binding signal was -0.113 E-score. In the case of GACTGATC, the binding signal is reported as -0.249 E-score. AAGTAGCG gave a binding signal of -0.103 E-score. Sequence CACGTAAA has a binding signal of 0.048 E-score. CTATCCCA was tested, and the binding signal was -0.0134 E-score. For ATATACGA, the binding signal was -0.0794 E-score. ACAGGATG gave a binding signal of 0.013 E-score. In the case of CTGGGGGA, the binding signal is reported as 0.0206 E-score. For GAATAATA, the binding signal was 0.0723 E-score. GGGATTGA was tested, and the binding signal was -0.139 E-score. In the case of GATTAAGA, the binding signal is reported as 0.000705 E-score. CGGCGCTC showed a binding signal of -0.0795 E-score. In the case of ACGTCCTA, the binding signal is reported as -0.165 E-score. Work on GAATCACC yielded a binding signal of -0.107 E-score. With CACACAAG the binding signal was 0.0217 E-score. Sequence TCTGTAAA has a binding signal of -0.113 E-score. In the case of ACCAGCTA, the binding signal is reported as -0.0338 E-score. CGTGATAG showed a binding signal of 0.0429 E-score. For ATGTAAAA, the binding signal was -0.223 E-score. For CTGACATA, the binding signal was -0.202 E-score. Sequence CATTACTA has a binding signal of -0.241 E-score. GTGCGACA showed a binding signal of 0.137 E-score. In the case of CTCGTATA, the binding signal is reported as -0.00683 E-score. In the case of GATTGAGC, the binding signal is reported as -0.259 E-score. GAGCCCGC was tested, and the binding signal was -0.0533 E-score. For GACACGCA, the binding signal was 0.416 E-score. CATGGACA gave a binding signal of 0.216 E-score. ATGGCTGC showed a binding signal of -0.109 E-score. With TACCTAAA the binding signal was 0.0177 E-score. AGGCGATG was tested, and the binding signal was -0.11 E-score. CTTCGCGA showed a binding signal of -0.0347 E-score. ATGGACAC was tested, and the binding signal was 0.419 E-score. Work on GCACCGAA yielded a binding signal of 0.156 E-score. In the case of ACCAAGGG, the binding signal is reported as 0.0725 E-score. Work on ATCCAAAG yielded a binding signal of -0.0931 E-score. With CCACAAAC the binding signal was -0.141 E-score. Work on GCATACCA yielded a binding signal of -0.00817 E-score. GCAGGTCA gave a binding signal of -0.123 E-score. Sequence GCTTGCCA has a binding signal of -0.386 E-score. With CCGCGCGA the binding signal was -0.1 E-score. Work on TACTACTA yielded a binding signal of 0.149 E-score. In the case of GTCGTCGA, the binding signal is reported as -0.224 E-score. With CCTGAAGC the binding signal was -0.0924 E-score. Work on GTTTGGCA yielded a binding signal of -0.224 E-score. With GATATTCC the binding signal was 0.0355 E-score. AAAGTTAG gave a binding signal of 0.0271 E-score. For CCACCGCA, the binding signal was -0.0604 E-score. GATGCAGC showed a binding signal of -0.309 E-score. ACAAATCC was tested, and the binding signal was -0.0739 E-score. In the case of AAAGTCGT, the binding signal is reported as -0.11 E-score. CGGCTAAC gave a binding signal of -0.106 E-score. Sequence AGGATAAT has a binding signal of 0.142 E-score. Work on GGCGAGTA yielded a binding signal of -0.0111 E-score. Sequence TCCCTGAA has a binding signal of 0.077 E-score. With TAGAACGA the binding signal was -0.0274 E-score. AGCTTTTC showed a binding signal of -0.211 E-score. Work on GACAACAA yielded a binding signal of -0.109 E-score. For CGTTTACC, the binding signal was -0.065 E-score. For GTTGTTGA, the binding signal was -0.00187 E-score. ATGACACG gave a binding signal of 0.449 E-score. Work on CCACTGGA yielded a binding signal of 0.206 E-score. TTAAACAA showed a binding signal of -0.159 E-score. In the case of CAGCTGAA, the binding signal is reported as -0.00674 E-score. With TAAGTACA the binding signal was 0.148 E-score. Work on CTCAACTA yielded a binding signal of -0.101 E-score. With CAAATATG the binding signal was -0.0951 E-score. For AAATTATT, the binding signal was -0.269 E-score. With CCAGGAAG the binding signal was -0.111 E-score. For CGTAAGTC, the binding signal was 0.0152 E-score. In the case of AGCGACGC, the binding signal is reported as 0.0076 E-score. Work on GAAACCGC yielded a binding signal of 0.0761 E-score. AGTACGCC showed a binding signal of 0.0535 E-score. With ATAGTTGC the binding signal was -0.251 E-score. With AAGAAAAC the binding signal was 0.0158 E-score. Work on TAGCCATA yielded a binding signal of -0.0729 E-score. CCTATCCC showed a binding signal of 0.0396 E-score. For GTTGCGAA, the binding signal was -0.183 E-score. CGTTATAC gave a binding signal of 0.0755 E-score. In the case of AGCGTGAT, the binding signal is reported as -0.0159 E-score. AAACTACT gave a binding signal of -0.0121 E-score. Sequence CGTGGGCC has a binding signal of -0.272 E-score. GATGGAAC showed a binding signal of -0.218 E-score. CAAGCTTA showed a binding signal of -0.0678 E-score. For ACCGCAAT, the binding signal was -0.00265 E-score. CTAGCGCA was tested, and the binding signal was -0.154 E-score. AGAGGTTA showed a binding signal of -0.12 E-score. Work on ACATTATG yielded a binding signal of -0.0859 E-score. With AGTTTCCG the binding signal was -0.205 E-score. Sequence CATATATC has a binding signal of -0.067 E-score. For AGCTGCCC, the binding signal was -0.0363 E-score. AACGATCG was tested, and the binding signal was -0.141 E-score. Sequence ACGATCAC has a binding signal of -0.0516 E-score. CAAATAGA was tested, and the binding signal was -0.178 E-score. Sequence CATGCGAA has a binding signal of -0.172 E-score. Sequence AGGCATTA has a binding signal of -0.142 E-score. In the case of ACGCTTGC, the binding signal is reported as -0.000685 E-score. Sequence GTTAGCAA has a binding signal of 0.0242 E-score. Work on AGACTCTC yielded a binding signal of -0.176 E-score. CTATACGC showed a binding signal of -0.0146 E-score. With ATATATTG the binding signal was -0.122 E-score. Sequence AGAATCCA has a binding signal of -0.0643 E-score. Work on GACTGTGA yielded a binding signal of -0.214 E-score. In the case of CTGGACCC, the binding signal is reported as -0.0556 E-score. Sequence GGTATACC has a binding signal of 0.303 E-score. GCTGAGTA was tested, and the binding signal was -0.121 E-score. Sequence CCGAGCGA has a binding signal of 0.0518 E-score. Sequence CGCAGGAC has a binding signal of -0.0831 E-score. CCATAAGG showed a binding signal of 0.065 E-score. In the case of CAGGATGC, the binding signal is reported as -0.21 E-score. With GGATGGAC the binding signal was -0.148 E-score. CCTAATTC gave a binding signal of -0.105 E-score. CGTTAACA showed a binding signal of 0.0987 E-score. AACTACAT gave a binding signal of -0.0188 E-score. For CTTGATAC, the binding signal was 0.195 E-score. Sequence GTACGGCA has a binding signal of 0.0153 E-score. CTACGCTA showed a binding signal of -0.0821 E-score. AATCATCG gave a binding signal of -0.187 E-score. ACGTTCAA gave a binding signal of 0.0393 E-score. Work on CCGGAAAG yielded a binding signal of -0.103 E-score. For AGGTGGGC, the binding signal was -0.0578 E-score. GCGGTAGC showed a binding signal of -0.0763 E-score. With ATCAGATA the binding signal was 0.0994 E-score. CTTCGATC was tested, and the binding signal was -0.0851 E-score. In the case of CTCAGCGC, the binding signal is reported as -0.151 E-score. CCGAGAGG was tested, and the binding signal was -0.186 E-score. AATGCAAT was tested, and the binding signal was -0.207 E-score. CAGCACAA gave a binding signal of -0.00564 E-score. In the case of ATTTGCCG, the binding signal is reported as -0.0409 E-score. ATATGGAA was tested, and the binding signal was -0.101 E-score. AAGCGAGG gave a binding signal of -0.0201 E-score. With AAGCTAAT the binding signal was -0.28 E-score. CGAAAAAC showed a binding signal of 0.0789 E-score. ACCACAAT showed a binding signal of 0.0527 E-score. Sequence GACATCCA has a binding signal of -0.135 E-score. For ATGAAACC, the binding signal was 0.0557 E-score. CATCCAAG gave a binding signal of 0.00459 E-score. For TAGGACAA, the binding signal was -0.147 E-score. ATCGGCGA gave a binding signal of -0.0714 E-score. CATTCTGG was tested, and the binding signal was -0.107 E-score. In the case of ACGACAGT, the binding signal is reported as -0.233 E-score. With ATACGCTA the binding signal was 0.0121 E-score. Work on GAATCTTA yielded a binding signal of -0.241 E-score. In the case of ATGCCTGG, the binding signal is reported as -0.0189 E-score. AGAAGCTA was tested, and the binding signal was -0.205 E-score. Work on AGATATGA yielded a binding signal of -0.106 E-score. For CATGCTGC, the binding signal was -0.0554 E-score. Work on CCGTGGGA yielded a binding signal of -0.0725 E-score. With AGAACGAC the binding signal was 0.0149 E-score. For AGCGCATC, the binding signal was -0.198 E-score. In the case of GTTGTGCA, the binding signal is reported as 0.0787 E-score. Work on GGCGTTAC yielded a binding signal of 0.154 E-score. For GGGGTATA, the binding signal was 0.274 E-score. In the case of AAGAATCC, the binding signal is reported as -0.144 E-score. Sequence TGGTAAAA has a binding signal of -0.262 E-score. ACTTATTG gave a binding signal of -0.144 E-score. With AGCCTCGG the binding signal was -0.15 E-score. Sequence ACACCTCC has a binding signal of 0.472 E-score. CAAGTGCA was tested, and the binding signal was 0.0819 E-score. ACACCCAT gave a binding signal of 0.458 E-score. Work on ACATTCTC yielded a binding signal of -0.292 E-score. For ACCCCTAT, the binding signal was 0.172 E-score. AAAACAGG gave a binding signal of -0.0885 E-score. CTCCGCAG gave a binding signal of -0.0804 E-score. ACGACAAG showed a binding signal of 0.0771 E-score. TAGCGGGA was tested, and the binding signal was -0.201 E-score. Work on CGTCTGCA yielded a binding signal of -0.091 E-score. CCCCAGTA was tested, and the binding signal was 0.0966 E-score. In the case of TGGGCACA, the binding signal is reported as -0.0583 E-score. With AGCGTCTC the binding signal was -0.0572 E-score.
